Key:
Experiment in all cases: cryo-EM structure; replisome reconstituted on fork DNA with AMP-PNP, isolated on a glycerol gradient with glutaraldehyde and BS3; 3.2 Å overall; a sample without CLASPIN solved at 3.4 Å
Settings in all cases: both partners purified
CLASPIN = target: T1, CLASPIN (human, UniProt Q9HAW4)
T1 construct: CLASPIN, human; Only residues 284-319, 525-540 and 592-618 are modelled in the structure; source: Hi5 insect cells (baculovirus), purified (Flag M2, Superose 6)

POLE1 = target: T2, POLE1 (human, UniProt Q07864 1-2286)
T2 construct: POLE1, catalytic subunit of Pol ε, human; Stood in the structure as a subunit of m2; residues 1,371-2,280 modelled; also called POLE1 catalytic subunit; POLE1^nonCat (the modelled C-terminal non-catalytic domain); source: Hi5 insect cells, purified as a subunit of Pol ε

TIMELESS = target: T3, TIMELESS (human, UniProt Q9UNS1 1-1208)
T3 construct: Stood in the structure as a subunit of m3; residues 7-803 modelled (527-684 not visualised)
T3 sequence: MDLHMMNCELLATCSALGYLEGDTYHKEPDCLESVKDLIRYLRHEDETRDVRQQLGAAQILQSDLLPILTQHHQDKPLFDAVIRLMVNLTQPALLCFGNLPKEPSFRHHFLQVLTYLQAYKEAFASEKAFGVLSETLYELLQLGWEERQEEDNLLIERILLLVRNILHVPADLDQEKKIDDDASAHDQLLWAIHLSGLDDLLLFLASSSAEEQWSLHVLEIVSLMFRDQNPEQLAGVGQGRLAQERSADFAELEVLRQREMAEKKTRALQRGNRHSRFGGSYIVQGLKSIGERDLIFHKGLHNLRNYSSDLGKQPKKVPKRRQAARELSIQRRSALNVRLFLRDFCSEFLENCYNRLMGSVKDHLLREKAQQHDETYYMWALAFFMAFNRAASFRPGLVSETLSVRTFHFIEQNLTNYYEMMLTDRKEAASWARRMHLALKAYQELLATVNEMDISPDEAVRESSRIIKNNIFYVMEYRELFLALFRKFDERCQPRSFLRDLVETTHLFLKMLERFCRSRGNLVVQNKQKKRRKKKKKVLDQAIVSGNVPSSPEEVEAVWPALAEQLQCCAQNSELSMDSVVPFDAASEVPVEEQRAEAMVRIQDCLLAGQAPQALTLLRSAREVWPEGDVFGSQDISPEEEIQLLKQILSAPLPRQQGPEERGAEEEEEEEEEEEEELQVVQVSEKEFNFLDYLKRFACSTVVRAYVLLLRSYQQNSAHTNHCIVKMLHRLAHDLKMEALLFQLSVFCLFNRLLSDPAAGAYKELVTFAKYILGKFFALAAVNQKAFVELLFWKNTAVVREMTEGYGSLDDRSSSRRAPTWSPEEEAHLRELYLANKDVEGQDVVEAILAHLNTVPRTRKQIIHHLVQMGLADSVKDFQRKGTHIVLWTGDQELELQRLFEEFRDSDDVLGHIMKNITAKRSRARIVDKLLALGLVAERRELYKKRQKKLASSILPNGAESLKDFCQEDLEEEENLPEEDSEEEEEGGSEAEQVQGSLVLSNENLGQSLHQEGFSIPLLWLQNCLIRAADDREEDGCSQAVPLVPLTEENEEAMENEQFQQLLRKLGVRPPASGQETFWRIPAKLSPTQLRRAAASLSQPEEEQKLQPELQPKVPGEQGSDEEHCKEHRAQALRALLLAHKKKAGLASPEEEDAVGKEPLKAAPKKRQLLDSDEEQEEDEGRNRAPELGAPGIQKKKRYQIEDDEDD

binding result (CLASPIN): binds
binding result (POLE1): binds
binding result (TIMELESS): binds
B1: MCM2 (natural protein)
chain: not shown
notes: MCM2, human; Stood in the structure as a subunit of m1; source: Hi5 insect cells, purified as a subunit of hsCMG

— PMC8634136 (The EMBO Journal, 2021)
